This note sets out measurements from article PMC6919601, “Identification of Plasmodium dipeptidyl aminopeptidase allosteric inhibitors by high throughput screening” (PLoS ONE, 2019).

About 230 (0.21%) of roughly 110,000 compounds showed an effect of 50% or more. The list shows a part of the results.
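Note: 30 min substrate incubation versus DMSO and 10 µM JCP410 controls.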

The target in this experiment is DPAP1 (Plasmodium falciparum, UniProt Q8IIJ9). Briefly: primary screen, percent inhibition; read by cleavage of a fluorogenic dipeptide substrate; higher = more effect of the substance. The arrangement: species or system P. falciparum D10 trophozoite lysates; single well.
Chain of DPAP1 (Q8IIJ9 whole entry, looked up): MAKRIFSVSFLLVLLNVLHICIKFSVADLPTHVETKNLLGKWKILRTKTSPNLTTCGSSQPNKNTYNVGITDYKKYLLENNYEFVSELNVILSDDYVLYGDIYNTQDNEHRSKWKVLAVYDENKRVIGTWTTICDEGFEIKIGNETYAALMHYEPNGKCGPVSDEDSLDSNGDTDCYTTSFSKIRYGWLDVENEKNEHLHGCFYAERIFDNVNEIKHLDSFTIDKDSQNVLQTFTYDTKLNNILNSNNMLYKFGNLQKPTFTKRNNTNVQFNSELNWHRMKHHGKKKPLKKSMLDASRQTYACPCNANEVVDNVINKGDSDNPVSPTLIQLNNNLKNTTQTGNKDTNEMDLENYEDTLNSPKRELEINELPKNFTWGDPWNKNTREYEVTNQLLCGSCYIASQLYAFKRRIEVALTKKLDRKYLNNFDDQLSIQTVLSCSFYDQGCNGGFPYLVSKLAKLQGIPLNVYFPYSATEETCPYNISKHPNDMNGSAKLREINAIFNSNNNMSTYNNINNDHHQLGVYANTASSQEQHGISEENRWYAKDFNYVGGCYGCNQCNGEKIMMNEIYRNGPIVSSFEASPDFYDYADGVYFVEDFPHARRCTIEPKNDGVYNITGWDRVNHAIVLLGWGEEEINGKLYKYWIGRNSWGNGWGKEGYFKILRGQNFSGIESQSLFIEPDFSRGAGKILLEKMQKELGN
Take `CC(=O)C1=C(C)OC(N)=C(C#N)C1c1ccc(C#N)cc1` (stereo not shown): the “% Inhibition @ 10 uM” value was -1.68%.

As for `CN(C)CCNC(=O)C1CCCN(C(=O)c2cnn(-c3ccc(F)cc3)c2-n2cccc2)C1` (stereo not shown), the “% Inhibition @ 10 uM” value is on record as 5.56%.

With `CCOc1ccc(C(=O)Nc2cnn(Cc3ccccc3)c2)cc1`, the “% Inhibition @ 10 uM” value is on record as -1.36%.

On to `COc1c(Cl)cc(Cl)cc1/C=C(\C#N)c1nn(CCO)c(N)c1C#N`, for which the “% Inhibition @ 10 uM” value was found to be 11.7%.

As to `O=C1C2C3CCC(C3)C2C(=O)N1CN(Cc1ccccc1)CN1C(=O)C2C3CCC(C3)C2C1=O` (stereo not shown), the “% Inhibition @ 10 uM” value is 2.43%.

Consider `Cc1ccc(S(=O)(=O)N(CC(=O)N2CCN(C)CC2)c2cc(Cl)cc(Cl)c2)cc1`, for which the “% Inhibition @ 10 uM” value turned out to be 0.161%.

Turning to `CC(CN1CCC(N2CCCCC2)CC1)c1ccccc1` (stereo not shown), the “% Inhibition @ 10 uM” value is on record as -0.0648%.

Take `CCC(=O)N1CCN(c2cc(C)c(C(C)=O)cc2F)CC1`: the “% Inhibition @ 10 uM” value worked out at 2.05%.

For the compound `CC(=O)C1=C(C)NC(SCC(=O)Nc2nccs2)=C(C#N)C1c1ccccc1Cl` (stereo not shown), the “% Inhibition @ 10 uM” value turned out to be 5.37%.

For `O=C(Nc1ccc(F)cc1F)c1cccc(F)c1`, the “% Inhibition @ 10 uM” value is -4.58%.

Take `COC(=O)c1cc(S(=O)(=O)N2CCc3ccccc3C2)c[nH]1`: the “% Inhibition @ 10 uM” value stood at 2.24%.

Turning to `O=c1nc2n(c(O)c1C(c1ccc3c(c1)OCO3)c1c(O)nc3n(c1=O)CCS3)CCS2` (stereo not shown), the “% Inhibition @ 10 uM” value is listed as -0.984%.

As to `CC(=O)NC1=NC(=O)/C(=C/c2cc3c(cc2Br)OCO3)S1`, the “% Inhibition @ 10 uM” value is reported as -5.07%.

Turning to `COc1ccc(N2CCN(C(=O)CN(C)S(=O)(=O)c3ccc(OC)cc3)CC2)cc1`, the “% Inhibition @ 10 uM” value was determined as 2.22%.

On to `Cc1nc(SCC(=O)c2ccc(Cl)cc2)c(C#N)c(C)c1C`, for which the “% Inhibition @ 10 uM” value is 1.44%.

In the case of `CC(CNC(=O)C1CC1c1ccccc1)NC(=O)C1CC1c1ccccc1` (stereo not shown), the “% Inhibition @ 10 uM” value is 0.825%.

In the case of `Cc1cc(N(C)C)nc(-c2ccccc2)n1`, the “% Inhibition @ 10 uM” value is reported as -3.26%.

Regarding `COCCNC(=O)c1cnn2c1NC(c1ccc(OC)cc1)CC2C(F)(F)F` (stereo not shown), the “% Inhibition @ 10 uM” value is 1.02%.

On to `COc1cc(CN2CCN(c3cccc(C(F)(F)F)c3)CC2)cc(Br)c1O`, for which the “% Inhibition @ 10 uM” value is listed as -1.92%.

Take `CN(C)c1cccc(C2(c3ccccc3)c3ccccc3Oc3ccccc32)c1`: the “% Inhibition @ 10 uM” value was found to be 0.962%.

For `CC(=O)N1c2ccccc2N=C2CC(C)(C)CC(O)=C2C1c1ccc(Cl)cc1` (stereo not shown), the “% Inhibition @ 10 uM” value is -1.44%.

In the case of `CCc1nn(CC(=O)NC(C)c2ccccc2)c(=O)c2cc3occc3n12` (stereo not shown), the “% Inhibition @ 10 uM” value was found to be 4.55%.

As to `CCN1CCN(C(=O)COc2ccccc2Cl)CC1`, the “% Inhibition @ 10 uM” value is on record as -4.21%.

With `Fc1ccccc1C1C2=C(Nc3ncnn31)c1ccccc1OC2c1ccccc1` (stereo not shown), the “% Inhibition @ 10 uM” value stood at 1.73%.

For the compound `Fc1ccc(N2CCN(Cc3ccc(F)c(F)c3)CC2)cc1`, the “% Inhibition @ 10 uM” value is -5.68%.

With `O=C(COc1ccc(Cl)cc1Cl)Nc1ccc(N2CCOCC2)c2nonc12`, the “% Inhibition @ 10 uM” value is 1.88%.

In the case of `Cc1ccccc1NC(=O)/C=C/c1ccccc1Cl`, the “% Inhibition @ 10 uM” value is on record as 1.35%.

Take `CCC(Sc1nncn2c1cc1oc(C)cc12)C(=O)N1CCOCC1` (stereo not shown): the “% Inhibition @ 10 uM” value is 4.14%.

For the compound `COc1cccc(-c2nnc(-c3cc(Cl)cc(Cl)c3OC)o2)c1`, the “% Inhibition @ 10 uM” value is given as 2.4%.

Turning to `CN(C)CC1CSCCC1(O)c1cccc(O)c1` (stereo not shown), the “% Inhibition @ 10 uM” value is on record as -15.4%.

For `CCOC(=O)N1CCN(C(C)Cc2ccc(F)cc2)CC1` (stereo not shown), the “% Inhibition @ 10 uM” value is on record as -3.5%.

For the compound `CCc1cc2c(cc3c(=O)n(CCCC(=O)NCc4ccccc4Br)ncn32)s1`, the “% Inhibition @ 10 uM” value is 1.68%.

For `Cn1cc(CC(=O)NCc2ccccn2)c2ccccc21`, the “% Inhibition @ 10 uM” value was determined as 87.4%.

Turning to `Cc1ccc(C(=O)Nc2ccc(S(=O)(=O)N(C)Cc3ccccc3)cc2)cc1`, the “% Inhibition @ 10 uM” value worked out at 0.913%.

As for `Cc1ccccc1CN1CCN(C(=O)c2cccc(Cl)c2)CC1`, the “% Inhibition @ 10 uM” value was -10.2%.

For `Cn1ncc(Cl)c1C(=O)NC1C2CC3CC(C2)CC1C3` (stereo not shown), the “% Inhibition @ 10 uM” value came to 2.38%.

Regarding `O=C(/C=C/c1ccccc1)Nc1cccc2c1C(=O)c1ccccc1C2=O`, the “% Inhibition @ 10 uM” value is given as -1.38%.

Consider `Cc1ccccc1NC(=O)CN1C(=O)S/C(=C/c2ccncc2)C1=O`, for which the “% Inhibition @ 10 uM” value is given as 3.17%.

For `O=C(NCCCN1CCOCC1)C1CCC(CNS(=O)(=O)c2cccc3nsnc23)CC1` (stereo not shown), the “% Inhibition @ 10 uM” value is given as -2.25%.

Take `COc1ccc(C2CC(C(F)(F)F)n3ncc(C(=O)N4CCOCC4)c3N2)cc1` (stereo not shown): the “% Inhibition @ 10 uM” value is reported as 2.7%.

Turning to `Cc1sc(NC(=O)c2cc3ccccc3oc2=O)nc1-c1ccccc1`, the “% Inhibition @ 10 uM” value was 26.4%.

On to `Cc1c(Cl)ccc(OCCCCCN2CCOCC2)c1C`, for which the “% Inhibition @ 10 uM” value is -2.74%.

For `O=C(COc1ccc(S(=O)(=O)NC2CCCC2)cc1)Nc1ccc(Cl)cc1Cl`, the “% Inhibition @ 10 uM” value came to 5.14%.

With `Cc1ccc(C(=O)N/C(=C/c2ccccc2F)C(=O)NCCCN(C)C)cc1`, the “% Inhibition @ 10 uM” value is -2.59%.

For the compound `COc1ccc(C2C(C(C)=O)=C(O)C(=O)N2c2cccnc2)cc1OC` (stereo not shown), the “% Inhibition @ 10 uM” value was -5.3%.

For the compound `O=C(c1ccc(COc2ccc3ccccc3c2)cc1)N1CCCC1`, the “% Inhibition @ 10 uM” value was -3.13%.

Take `CC(C)Cn1c(=O)c2ccccc2n2c(-c3ccccc3O)nnc12`: the “% Inhibition @ 10 uM” value worked out at 3.3%.

Turning to `Cc1ccc(-c2[nH]nc3c2C(c2cccs2)C(C#N)=C(N)O3)cc1` (stereo not shown), the “% Inhibition @ 10 uM” value was 1.47%.

Regarding `CCN(CC)CCNC(=O)Cn1nc(C)n2c(cc3c(OC)cccc32)c1=O`, the “% Inhibition @ 10 uM” value is given as 0.0198%.
